Data taken from the supplement of paper PMC11417369.
± gives the standard deviation of the averaged measurements. Some of the results follow.

The sequences below were run on PfAP2-EXP AP2 domain (GST-tagged) (assay: gcPBM binding intensity (ln(normalized median fluorescence intensity)); higher = stronger DNA binding).
Method in brief: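 Binding intensity is defined as the maximum Masliner-normalised natural-log median intensity across replicate spots for either probe orientation. It was measured on an Agilent 4 × 180k array of primer-extended double-stranded 36-bp intergenic genomic probes and negative controls, to which GST-tagged P. falciparum DNA-binding domains made in E. coli were applied for 1 h in 1× PBS with 1% milk, 0.2 mg/ml BSA, 0.5% salmon testes DNA and 0.03% Triton X-100. Detection was by Alexa488 anti-GST antibody and scanning at 488 nm.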

Sequence | gcPBM binding intensity (ln)
TACATACACAAATACACACACAAATACATACCCAAA [CACACA_site4550] | 8.74 ± 0.61
GGTATACTCAAGTATACACACATATATATATATATA [CACACA_site5746] | 10.2 ± 0.45
TATGCATTTATGCATTGTACTTTTATAGATTCCACC [XGTACX_site7121] | 8.32 ± 0.35
AACAATATGGATGTATGTACACATATAGAACGTTAT [XGTACX_site7142] | 8.98 ± 0.33
TTAAACTATACCAAAACACACATACAAAATATAAAA [CACACA_site5494] | 8.81 ± 0.47
TATGTATATATATTAACACACAAAAAAAAAAAAAAA [CACACA_site1812] | 8.14 ± 0.69
ATGAACGGAAAAATATATATAAATATATATATCATG [XGTACX_negctrl_site342] | 8.44 ± 0.37
TACAAAAAAAAAGAACGTACAAAAAATTTCAAAAAT [XGTACX_site5860] | 8.61 ± 0.4
ATATTATATATACACGCACACACACTAATATATATA [CACACA_site9092] | 8.83 ± 0.27
GAAATTTTATTACTTTTACACACCTATATATTATTC [CACACA_site9076] | 8.69 ± 0.41
TAAAATAACTCACAAAGTACAAAAATAAGCATATGA [XGTACX_site7046] | 8.78 ± 0.64
TACATGATAGATCACACACACATATAAATATATATA [CACACA_site5562] | 8.41 ± 0.43
ACATAAGACACAAATACACACAAAAATATATAACAA [CACACA_site4082] | 8.77 ± 0.46
AAAAAAAAAAAAAAAACACACACATATATATATATA [CACACA_site8571] | 10.1 ± 0.21
TTCATGTCCTATTAATGTACTCTACACACATATAAG [XGTACX_site899] | 8.73 ± 0.35
TGTATATAATCGAGTGCACACACAAAAAAAAAGTGA [CACACA_site8417] | 8.97 ± 0.38
ATTTTATATACACTTTGTACTTATTTTATTCTTCTT [XGTACX_site4200] | 8.95 ± 0.37
TTTATTTATTTTTGTTGTACACTTGTATATATTATT [XGTACX_site6486] | 9.06 ± 0.41
ATATATATATATAATACACACTAAAGTAACATAATA [CACACA_site5580] | 9.74 ± 0.11
TATTAAACTTGACACACACACACACGCATATATAAA [CACACA_site6496] | 8.63 ± 0.33
TTTTTTAATACATATGCATGTTCAAGTACGAAAAAA [TGCATGCA_site641] | 8.61 ± 0.43
TACGGGAAAGATAAGAAACACACGGAAAATTAGACG [CACACA_site1661] | 9.13 ± 0.52
ATATATTTTATACATACACACATATAAATATTTTTT [CACACA_site7780] | 8.52 ± 0.36

Sequence | gcPBM binding intensity (ln)
GGAACAAATAATATCACACATATATATATATATATA [CACACA_site5670] | 10.3 ± 0.23
TACGCAACCAAAAGTTGTACTAATTTTTTTTTTTTG [XGTACX_site7432] | 8.68 ± 0.47
TAATAAATATATTGAAGTACTTATAAAAAGCAATAT [XGTACX_site6262] | 9.14 ± 0.53
TTAAAAGTAAGCAAAGTGCATATAACAAAAGTAAAG | 8.95 ± 0.34
AATATAAAACTTTAGAGTACTTATCATTAAAATATA [XGTACX_site4509] | 8.06 ± 0.32
TAAAATAAAAAAGTAGTACACACTTCACGATATTTT [CACACA_site3896] | 8.53 ± 0.37
ATTAATAATGAAAAAAAACACACGGTACATTCAAAG [CACACA_site1302] | 8.82 ± 0.55
TATTTAAAATAATGTGCAAAAGAATAAATAAATAAA [TGCATGCA_negctrl_site194] | 8.89 ± 0.42
TTGTAAGAAAGACACACACACACATATAAATATGTA [CACACA_site6516] | 8.49 ± 0.54
TTCATTTTCATATATTGTACAAAATTTTATAAGGTT [XGTACX_site4522] | 8.64 ± 0.49
TATATATATATATATACACACATACAGATATATATT [CACACA_site4629] | 10.2 ± 0.36
TATATAAGAACTTTTACACACATGAAAATGTAGATA [CACACA_site7711] | 8.36 ± 0.23
CACTAAAAGAAACACACACACACACCCATATATATA [CACACA_site4151] | 8.78 ± 0.071
TTACTATTATTATTTTTTATTTTTATTTTATTTATT [TGCATGCA_negctrl_site269] | 8.57 ± 0.21
ATATACACATATACATGTACAAATATATATACACAT [XGTACX_site2986] | 8.72 ± 0.35
ACACAAATAAATATAACATATATATTATATTATATT [CACACA_negctrl_site710] | 8.22 ± 0.3
TTTATATAAATTTTTTGTACACAAGTAAAAACGCGT [XGTACX_site2459] | 8.68 ± 0.33
ATAAAATATATATATATAAAAATAAATACATAAATA [GTGCAC_negctrl_site157] | 8.44 ± 0.38
CAAACAAACAGACACACACACACACCCAAAAATGAT [CACACA_site2430] | 8.65 ± 0.45
TCAATATTAAATTATTGTACATGTATGTATATATAT [XGTACX_site3861] | 8.775 ± 0.064
TTTTTTTTTTTTTTTTTACACACTTTATTCAAACAA [CACACA_site9360] | 8.2 ± 0.42
TACACCCACCCACATACACACACATACACATATATA [CACACA_site8503] | 9.33 ± 0.71
AAAAAAAAAAATATATTAAAATAAAAAATATTAACA [GTGCAC_negctrl_site13] | 8.16 ± 0.33

Sequence | gcPBM binding intensity (ln)
CCACTTAAAATAAAAAGTACATACAGGTGTTATACA [XGTACX_site8124] | 8.54 ± 0.42
AAATTGGTTCATCAATGTACATGTAAAATAAATCAA [XGTACX_site4795] | 8.88 ± 0.46
AATAATGTTATAAATTGTACGTGTATTATTCATTAC [XGTACX_site894] | 8.47 ± 0.4
TAATGAGGAAATACAGCACACGTTATTACACTTTTC [CACACA_site5399] | 8.46 ± 0.4
TATATTTATCCATACAAGAAAAAAAAAAAAAAAATA [CACACA_negctrl_site1328] | 8.17 ± 0.55
CAAATAAAAACAAAACGTACGAATAAATTATTGTTA [XGTACX_site5136] | 8.89 ± 0.36
CACATATAAATATTAACACACATAATGAATTATATA [CACACA_site2741] | 8.17 ± 0.28
ATATATAAAAATTAGGTGCATTAAATTAAAATATAT | 8.98 ± 0.45
ATATCGTTATTTTTATGTACTAAAATATTTAATTAT [XGTACX_site3516] | 8.88 ± 0.47
TATTTGATCTAAAGAGCATGCAAAAACGAACAAGAT [TGCATGCA_site136] | 9.96 ± 0.5
TTTTTTTTTTATTGTACATGCAAAAAATTCCACACA [TGCATGCA_site279] | 8.79 ± 0.12
TTTAAATAAAATATTACACACTTAGAAAGATATATA [CACACA_site7684] | 8.17 ± 0.31
AGCATATTATTTTAGGTGCACTTGAAATGTGTTAAC | 9.06 ± 0.3
TATTTTTATTATATGGTGCATATATACATACATATA | 8.875 ± 0.007
TTCAAGCCCTTCTGCTTACACACAGTAATTATTGTG [CACACA_site2952] | 8.94 ± 0.61
AAGTGCATATTATTCACACATAATAATTGTATACCT [CACACA_site5965] | 8.85 ± 0.14
ATATGATCATAAAACACACACACAAAAAAAAAAAAA [CACACA_site1806] | 8.29 ± 0.61
AAAAAAAAAAAACACACACACAATAGTATATAAATC [CACACA_site956] | 8.72 ± 0.49
AATTAGATGGATAAATGTACATAATGTGAATATATT [XGTACX_site86] | 8.96 ± 0.42
ATCCACTTTTTGAAGACACACACAAAAAAAAAAAAA [CACACA_site8818] | 8.36 ± 0.59
TAAAAATAATTTGCATGTACATAGGTCGATGTATTT [XGTACX_site1357] | 8.77 ± 0.2
TGTAAATTATAACGTGCACACATATTTAAAATGAAA [CACACA_site8915] | 9.39 ± 0.47
AGATATTTATTGAGTGCATGTTATAAAGGGAAAAAA [TGCATGCA_site88] | 8.79 ± 0.3

Sequence | gcPBM binding intensity (ln)
ATATAGAAAATGCATACACACTTTATAAATATATTT [CACACA_site6553] | 8.54 ± 0.46
AGGATATATAAGTATACACACATATTTATATTTATA [CACACA_site6239] | 8.23 ± 0.42
AATTTAAAATATATAGTACACACGTGAACACAAATA [CACACA_site416] | 8.77 ± 0.32
TTAAAATATACATAAACACACACAAAACGTTTAAGA [CACACA_site8267] | 8.89 ± 0.44
TTTTTTTTTTTTTTTTTTTTCACATGTGTGGAAAAA [GTGCAC_negctrl_site352] | 8.26 ± 0.38
TAACAATAACTTTATACACACATAATATATATATAT [CACACA_site3543] | 9.65 ± 0.33
TGTATTTATAATAAAACACACATTTTTAATGTGCTC [CACACA_site4908] | 8.03 ± 0.2
TGTTGTCCTAATTCTACACACAATGGTTTATTAAAA [CACACA_site2648] | 8.62 ± 0.23
CATATACTTCTGTGCACACGAATATTTTTCTTCTTC [CACACA_site1407] | 9.15 ± 0.042
TATACTCATATTTTTACACACATATTTTTTCATATA [CACACA_site5412] | 8.64 ± 0.47
TTTTAACGTAAAACATTGATGATATAAAAAATAGGA [GTGCAC_negctrl_site540] | 8.66 ± 0.37
TTTGTGTTTATAAATTGTACAAAGGTGCAAGAAGAA [XGTACX_site2159] | 9.26 ± 0.3
AAAAAAAAAAAAAACACACACACACCCATAAATATA [CACACA_site151] | 8.65 ± 0.53
AGGATTAAAAAAACATGTACGTATTTAAATATATTT [XGTACX_site8774] | 8.72 ± 0.32
AATTGAATAAATTAAACATGCACAGATGTTCTATTT [TGCATGCA_site692] | 8.15 ± 0.3
TACTGGTATCGATATAGTACATATAATATTATGTTA [XGTACX_site7490] | 8.59 ± 0.31
GTATAAAAAAATAAAAGTACAAAAAAAAAAGACTGA [XGTACX_site186] | 8.79 ± 0.25
AAATAAAAAATATGAACACACATATATAACAAAATA [CACACA_site261] | 8.69 ± 0.41
TTTTTTTTTTTTTTTTTTTTTTTTTTTTTTTTTTTT [CACACA_negctrl_site104] | 9.31
ATATAAATAAAATATACACACATAAATATAACGACA [CACACA_site1637] | 8.88 ± 0.47
